# According to the supplement of paper PMC12632987:
# In all, about 2,300 sequences were measured (“median log2 fold change of GCK-ALFA target abundance (FLAG IP / Myc IP barcode read proportion)”: median about 0.095, lowest 2% from about -0.47 on). The list shows a part of the results.
# B1: LC3A_28_786 (protein)
# chain: SKLKENVEKAIKEAKEAAAAGKSQVITIEVPGDATEEDVEYVIEGLEEIAKILDGVKDQAIIIDVDSKVKEEHIKKLAEKADEIEEKYPNVTVIIALEEK
# B2: LC3A_free_39_2240 (protein)
# chain: SMERIEAVIREIAEESGLPEEEVRAAMEEIQRVAGLTPEQMLEIAEAILEAVRAGADGREILEESLRIARELKAEGKTPEEIKEAILEHIRDMRNLVPLD
# B3: LC3A_147_493 (protein)
# chain: AVIEIDILVKDKETAEEIVEEIKKIVEELKKEGYEVELEVEIEKLDEDTYYVRVTIKIKAKTPEEEKKAADKVLKEIEKILEKHKDRVLAALINVEYEEE
# B4: LC3A_28_1254 (protein)
# chain: MEVEESIEKALKEAKEAVEKGEEALVTIKVPAGITEEEVEKVIEAMEEIAELTKSLPKTTILVDVEAGVKQEAIDKLADKGEELEKKYPHLTVILALEEE
# B5: LC3A_28_1083 (protein)
# chain: SAIQEQIEAAIAALREAKARGEEALLEITLTEDATQEDIDLAIEGLREIAELARDAKKVTVVINLDGKIPQEHIDRLADAAEEIEKEVPNVTVIIALDEN
# B6: LC3A_37_1346 (protein)
# chain: MERLLIVAVGRTEAALEKVRPTLERLAARSGAEVRTVVAPADATETELLERAEEEVEEIKEELEKETGKKIKSSTIFSVERDPETGETVVIAYSLLEEVE
# B7: LC3A_28_1164 (protein)
# chain: SETEKSLEEALKEAKEAAEKKEPKTIVIKIEGGITQEETDKVIEALEEIAELLKDIPGSAIVIDISSGVSQEQLNKILDAAEEIEEKYPNVTVIIALDEN
# B8: LC3A_3_1764 (protein)
# chain: MEEFIEEAAEELREAGASEELIELASEALRLLLERGLEETAERFKEVLLELLKKSEELALDLAREVLELLKTSTLSPEELAEEVESLMNAALSEAEIEEL
# B9: LC3A_45_1969 (protein)
# chain: MARATVDLLVPREKAEEAYKIIKEFAEEAKEKYGDKVEFDWETLDESYEASKNEEEVYFRVVITAETKELALEVADELVERLEEELGVPIAAIISLEELP
# B10: LC3A_102_149 (protein)
# chain: SAVEKLKKLEEKALKEAKKIAEKLKKKDPELAKKVLELLEEGIKAITESAISEVQHGFTDIYAEDLAEEKLEELKKLGEEEGVKLLEKVREEAKKIVEEA
# B11: LC3A_28_1010 (protein)
# chain: MSVVEETKKEAEKALEEAKKGNDAYLEIKITKDTTLEEVKEIGKIIEETAKKISEIENVKLYIVVDDDSNEEKHNIILDKLDEIEKKYPNVSSIVAYTDE
# B12: LC3A_28_1109 (protein)
# chain: SKTEEQIKKALEKAKEAAKKGEPVVITLTVTSEDTEEDIEKILKALEEIAEILKDVEGAAIIIDLDGKIPQEHLDKLADKAEEIEKKYPNVTVIIALDEN
# B13: LC3A_102_137 (protein)
# chain: ELEKVAEEVEAELEKEVEELLAKRTDLTPEEKEELRRLARRAFEAAKESWRDYVEHGFVDIVAEDESLRAIDELAARDPELAAVVRRKVEELRERAEKLK
# B14: LC3A_28_1311 (protein)
# chain: TPIEEKLAAAIAEAEAAAKAGEPVVVTVDITAEEAEKNLELILEGLERLGEVLSKVPDAAIIIDVDEDVDPEHLKKIADRAEEIEEKYPNVTVIIAIEDK
# B15: LC3A_28_1293 (protein)
# chain: SEIEKNLEEALARAKEAVAAGKQEVIEVNVPGDATEEEIEKVIEGLEEIAEVLKTVPNQSIIINVDAGVPQEYINKLADKAEEIEKKYPNVTVIIALDED
# B16: LC3A_free_46_2407 (protein)
# chain: YIAEISIDLLADSLEKAEAARKEIEEAARKIAEEHGAKLKIESEIEEEPDGKVFVRIDLIIEAEDLETLKAAVNEIIDAAVEIAEKEGASIIISYEISEK
# B17: LC3A_3_1581 (protein)
# chain: MEERLAAYEAELRAAGLSPEVVAKATEVLTLALERGLLETADYILESMLELKDADPELLLETLDEIKAILDDESLSDEEKTAKVKEELNTALSESEIIEL
# B18: LC3A_23_599 (protein)
# chain: MYKVTVTIDAIGDKEELEKKVEELKKGVEELIEKYKDKVISYEIEVEFEELEDGKTYMTVTITIILKDDKEVAEKIAQELTDIADKVFPDGVISSDVEKL
# B19: LC3A_28_1189 (protein)
# chain: SELDKQLEEAIKEAKELAEKGEPAVITIKVPGDADEEDIEKVIETLEEIAEILKDIPGSAIIIDLDGGVKQEHIDKLAEKAEEIEKKYPNVTVILALEER
# Molecular target: MAP1LC3A, Q9H492
# Test: median log2 fold change of GCK-ALFA target abundance (FLAG IP / Myc IP barcode read proportion) (log2 ratio); each designed protein is fused to an ALFA-tag nanobody in HEK293 cells to bring the named protein to FLAG-tagged glucokinase (GCK); Myc marks an untargeted standard; higher = target protein stabilised (more abundant)
# Settings: target protein: 3xFLAG-MCP-GCK-ALFA reporter; HEK293 landing pad (RPLP)
# In short: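 The readout is target abundance, the per-binder median log2 ratio of FLAG to Myc barcode read proportions. It came from HEK293 landing-pad cells carrying a recombined ALFA-nanobody-fused binder library, induced with 2 μg mL^−1 doxycycline and transfected with a plasmid for a FLAG-tagged target and a Myc-tagged standard. After 48 h, lysates were immunoprecipitated with anti-FLAG and anti-Myc, and circular RNA barcodes were reverse transcribed, amplified and sequenced. Each barcode needed a proportion of at least 10^−7 in both replicates and each binder at least 3 barcodes per replicate, a pseudocount of 10^−6 was added, and the replicates were pooled.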
row,Binder,median log2 fold change
1,B1,0.16
2,B2,0.299
3,B3,-0.0794
4,B4,0.175
5,B5,0.181
6,B6,-0.245
7,B7,-0.0529
8,B8,0.243
9,B9,0.0353
10,B10,0.245
11,B11,-0.515
12,B12,0.0394
13,B13,0.194
14,B14,0.178
15,B15,0.141
16,B16,-0.408
17,B17,0.31
18,B18,-0.25
19,B19,0.119
